# Results as given in PubChem BioAssay AID686978 (National Center for Advancing Translational Sciences (NCATS), 2013).
# In all, about 420,000 compounds went through this assay and about 64,000 (15%) were called active. This list was built around the results that the source calls inconclusive (neither active nor inactive); the mix of calls is not that of the screen. The call rests on the fitted dose curve; in most records, active means well fitted inhibition curve with a large enough effect; inconclusive means small, poorly fitted or top-dose-only effect; inactive means flat fitted curve, though single readings scatter. Potencies of inconclusive entries are left out as doubtful fits.
# Test: qHTS for Inhibitors of human tyrosyl-DNA phosphodiesterase 1 (TDP1): qHTS in cells in absence of CPT; further: nearly all actives have a fitted effect of over 55% in size
# Conditions: DT40 Tdp1-/- hTDP1 cells, no CPT, ATP luminescence, 48 h; activity change, negative = growth inhibition: at 46.2 µM (top of the series) unless noted
# In short: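 A cellular qHTS used chicken DT40 cells lacking endogenous Tdp1 but carrying stably transfected human TDP1. Compounds were applied without camptothecin, and cell growth kinetics were judged by ATP-dependent luminescence after ≥48 hr.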
# On the % scale 0 is the no-effect control and ±100 the full control effect; potency means the concentration at half of the fitted maximal effect; tags describe the fitted curve by direction and shape.
SMILES,Potency,"activity change, negative = growth inhibition"
COC(=O)C1CCN(C(=O)/C=C/c2ccccc2)CC1,inactive,–
O=C(OCc1ccccc1)N1CCC2CC1c1ccc(Cl)cc12 (stereo not given),"inconclusive [inhibitor, single point]",–
Cc1ccccc1C(=O)c1cccn1CC(=O)NCCN1CCN(c2cccc(C)c2C)CC1,active: 8.2 µM,–
N#Cc1ccc(OCc2nnc(-c3ccc([N+](=O)[O-])cc3)o2)cc1,"inconclusive [inhibitor, partial curve]",–
Cc1c(C(=O)N2CCN(c3ccc(F)cc3)CC2)sc2nc(-c3ccccc3)cn12,inactive,–
CC1=C(C(=O)Nc2ccc(C)cn2)C(c2cnn(C)c2)C2=C(CCCC2=O)N1 (stereo not given),inactive,–
O=C(CSc1ccc(-c2cccs2)nn1)Nc1cccc(F)c1,active: 23.1 µM,–
O=S(=O)(c1ccc(NC(=S)NCc2ccc(F)cc2)cc1)N1CCOCC1,"inconclusive [inhibitor, single point]",–
Cc1ccccc1NC(=O)COc1ccc2oc(=O)cc(C)c2c1,"inconclusive [inhibitor, single point]",–
COc1ccc(-c2cc3c(=O)n(CC(=O)N4CCCC4)ncn3n2)cc1,inactive,–
COc1ccc(C(=O)/C=C/c2cc(OC)c(O)c(OC)c2)c(F)c1,active: 16.4 µM,–
O=C(N/N=C/c1cccc2ccccc12)c1cccs1,"inconclusive [inhibitor, partial curve]",–
CCOC(=O)Cn1c(=O)n(C2CCCCC2)c2nc(-c3cccc(C)c3)nc(C(N)=O)c21,inactive,–
COc1ncc(-c2ccc(N3C(c4ccsc4)=Cc4ccccc4C3CC(C)=O)cc2)cn1 (stereo not given),"inconclusive [inhibitor, single point]",–
Cc1nc(NC2CCCCC2)c2nnn(Cc3ccccc3Cl)c2n1,"inconclusive [inhibitor, single point]",–
COc1cccc(-c2cnc(C(O)c3ccc(Cl)c(Cl)c3)[nH]2)c1 (stereo not given),"inconclusive [inhibitor, single point]",–
CCCn1c(=O)c2sccc2n2c(CCCC(=O)Nc3ccccc3F)nnc12,"inconclusive [inhibitor, single point]",–
COc1ccc(CCNC(=O)C(=O)c2c(C)n(C)c3ccccc23)cc1OC,inactive,–
CCOP(=O)(OCC)c1nc(-c2ccc(Cl)cc2Cl)oc1N1CCOCC1,"inconclusive [inhibitor, partial curve, poor fit]",–
O=C(Cn1cnc([N+](=O)[O-])c1)c1ccc(F)cc1,"inconclusive [inhibitor, single point]",–
O=C(CSc1nccn1Cc1ccccc1)Nc1nccs1,–,inconclusive: -30.3% [inhibitor]
COc1cccc(CN2CCc3nc(N4CCN(C)CC4)ncc3C2)c1,"inconclusive [inhibitor, single point]",–
CCOC(=O)c1cnn(C)c1NC(=O)c1ccc(Cl)cc1Cl,inactive,–
CC(C)(C)NC(=O)Nc1ccc(F)c(Cl)c1,–,inconclusive: -30.8% [inhibitor]

SMILES,Potency,"activity change, negative = growth inhibition"
CCCNC(C)C(=O)Nc1c(C)csc1C(=O)OC (stereo not given),inactive,–
Cn1nc(-c2ccc(N3CCN(CCO)CC3)c([N+](=O)[O-])c2)c2ccccc2c1=O,"inconclusive [inhibitor, single point]",–
COc1ccc(NC(=O)N(C)C[C@H]2Oc3c(NC(=O)c4nc5ccccc5s4)cccc3C(=O)N([C@@H](C)CO)C[C@H]2C)cc1,"inconclusive [inhibitor, single point]",–
COc1ccc(S(=O)(=O)n2nc(-c3cc(OC)c(OC)c(OC)c3)cc2N)cc1OC,"inconclusive [inhibitor, partial curve, poor fit]",–
CC(C)c1ccc(Nc2nc(Cl)nc(NCc3ccco3)n2)cc1,"inconclusive [inhibitor, single point]",–
CN=C1S/C(=C\c2cn(CC(=O)OC)c3ccccc23)C(=O)N1C,"inconclusive [inhibitor, partial curve]",–
CCOc1ccc(CCNC(=O)Cc2ccc(NC(=O)N3CCSc4ncccc43)cc2)cc1,"inconclusive [inhibitor, partial curve]",–
CCOc1ccccc1NC(=O)CSc1nnc(CNC(=O)c2ccccc2F)o1,inactive,–
CCOc1ccccc1OCCn1nc2ccccc2n1,"inconclusive [inhibitor, partial curve, poor fit]",–
CC(C)Cc1nnc(NC(=O)c2cc(S(=O)(=O)N(C)C)ccc2N2CCCC2)s1,inactive,–
CCN1CCN(CCCNC(=O)c2ccc3c(c2)NC(=O)c2ccccc2S3)CC1,–,inconclusive: -31.5% [inhibitor]
N#Cc1c(N2CCCCC2)nc(N)c2c(N)nc(SCC(=O)O)cc12,"inconclusive [inhibitor, single point]",–
CN=C(Nc1ccc(Cl)cc1)c1cccc(C(F)(F)F)c1,"inconclusive [inhibitor, single point]",–
CC(OC(=O)c1nc(Cl)ccc1Cl)C(=O)Nc1ccccc1F (stereo not given),inactive,–
COc1ccc(-n2nc(C(=O)N3CCN(c4cccc(C(F)(F)F)c4)CC3)c3c4ccccc4n(C)c3c2=O)cc1Cl,inactive,–
COc1cc(S(=O)(=O)NCc2ccc(F)cc2)ccc1-n1cnnn1,inactive,–
CCOc1ccc(-c2ccc(/C=C3/C(=N)N4C=CSC4=NC3=O)o2)c([N+](=O)[O-])c1,"inconclusive [inhibitor, partial curve]",–
O=C(O)CCN1C(=O)/C(=C\c2ccc(-c3nc4ccccc4s3)o2)SC1=S,"inconclusive [inhibitor, single point]",–
COc1ccc(N(CC(=O)Nc2cccc(C)c2)S(=O)(=O)c2ccc(C)cc2)cc1OC,inactive,–
COC(=O)c1c(NC(=O)CCS(=O)(=O)c2ccccc2)sc2c1CCN(C)C2,active: 3.66 µM,–
CC(=O)Nc1ccc(S(=O)(=O)NC(C)CCc2ccccc2)cc1 (stereo not given),"inconclusive [inhibitor, single point]",–
CCOC(=O)Nc1cc(NC(=O)OCC)c(C)nc1C,inactive,–
CC1Sc2ccc(S(=O)(=O)NCCc3ccc(Cl)cc3)cc2NC1=O (stereo not given),"inconclusive [inhibitor, single point]",–
COCCn1c(=NC(=O)c2cc(-c3cccs3)nc3ccccc23)sc2cc(S(N)(=O)=O)ccc21,"inconclusive [inhibitor, single point]",–

SMILES,Potency,"activity change, negative = growth inhibition"
CC(C)c1ccc2[nH]c3c(c2c1)CCCC3=O,inactive,–
O=C(Nc1ccccc1C(=O)O)c1cccc(C(=O)Nc2ccccc2C(=O)O)c1,"inconclusive [inhibitor, single point]",–
CCn1cc(C(=O)NC2CCCCCC2)c2cc(OC)c(OC)cc2c1=O,"inconclusive [inhibitor, partial curve]",–
COc1ccc(-c2n[nH]c(C)c2-c2ccc(Cl)cc2)c(O)c1OC,"inconclusive [inhibitor, partial curve]",–
NNC(=O)c1ccc(COc2ccc3ccccc3c2)o1,"inconclusive [inhibitor, single point]",–
COc1cccc(N2CCN(C(=O)Cn3ncc4c5ccccc5n(C)c4c3=O)CC2)c1,inactive,–
O=C(c1ccc(F)cc1)C1CCN(C(=O)c2ccc(Cl)cc2)CC1,active: 18.4 µM,–
Cc1ccccc1NC(=O)C1CCN(C2=NS(=O)(=O)c3ccccc32)CC1,–,inconclusive: 6.98% [inhibitor]
Cc1cccc(-c2noc(-c3cc(-c4ccc(F)cc4)n[nH]3)n2)c1,"inconclusive [inhibitor, single point]",–
COc1cc(OC)cc(C(=O)Nc2nc(-c3nnn(-c4ccc(F)c(Cl)c4)c3C)ns2)c1,"inconclusive [inhibitor, single point]",–
CC12CN3CC(C)(CN(C1)C3c1cc(Br)ccc1O)C2=O (stereo not given),"inconclusive [inhibitor, single point]",–
CCOC(=O)CNC(=O)C1CCN(S(=O)(=O)c2ccc(-c3nn[nH]n3)cc2)CC1,inactive,–
C/C(=N\NC(=O)c1cccc(Br)c1)c1ccc(Br)cc1,–,inconclusive: -31.8% [inhibitor]
CCc1ccc(NC(=O)CSc2nc(NS(=O)(=O)c3ccccc3)cc(=O)[nH]2)cc1,active: 16.4 µM,–
CC(C)NC(=O)CSc1nc(Cc2ccccc2)nc2ccccc12,"inconclusive [inhibitor, single point]",–
COCCN(C(=O)/C=C/c1ccccc1)c1nnc(-c2cccnc2)s1,"inconclusive [inhibitor, partial curve, poor fit]",–
O=C(CSc1nc(-c2ccco2)nc2cc(=O)[nH]n12)Nc1ccccc1F,inactive,–
COc1ccccc1N1CCNC(C)C1=O (stereo not given),"inconclusive [inhibitor, single point]",–
COc1ccc(OC)c(C2C(C(=O)c3cccs3)=C(O)C(=O)N2c2cc(C)on2)c1 (stereo not given),"inconclusive [inhibitor, single point]",–
CC(C)CN(C(=O)COC(=O)c1ccc(Br)cc1)c1c(N)n(Cc2ccccc2)c(=O)[nH]c1=O,"inconclusive [inhibitor, single point]",–
CCOc1ccc2[nH]c(=O)c(CN(Cc3cccs3)Cc3nnnn3C(C)(C)C)cc2c1,active: 15.8 µM,–
CCCSc1nc2cc(C)c(C)cc2n1CC(O)CO (stereo not given),"inconclusive [inhibitor, single point]",–
